# IC50 is the fitted dose that halves viability relative to control wells, and lower means more sensitive; a fit beyond the top or the lowest dose is shown as a bound at that dose. AUC, from the same fit, is the share of area under the viability curve across the 256-fold dose range; values near 1 show little effect. For some assays here: Where the top dose is marked as inferred, it comes from the curve model; the source does not state it. For some assays here: Drugs with an entry number were screened twice under separate entries, and the two screens often disagree.
# Key:
# Assay in all cases: Viability of human cancer cell lines after 72 h of drug (GDSC screen)
# [1] = compound: O=c1[nH]cc(F)c(=O)[nH]1 [5-Fluorouracil]; conditions: top dose 32 µM; top dose inferred
# Protocol: (§1)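 Human cancer cell lines in 384-well plates, medium with 10% serum, drug for 72 h over a 256-fold dose range (nine 2-fold or five 4-fold steps up to the top dose). Adherent lines were fixed and stained with the nucleic acid dye Syto60, suspension lines read with resazurin; signal relative to control wells, capped at 0 and 100%. One two-parameter sigmoid per drug and line, fitted in a mixed model over all curves with the slope shared within a line.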
# [2] = compound: COc1cc(F)c(F)c(Nc2ccc(I)cc2F)c1NS(=O)(=O)C1(C[C@H](O)CO)CC1 [RDEA119]; conditions: top dose 5 µM, top dose inferred
# Protocol: as §1
# [3] = compound: Fc1cc(-c2ccnc(Nc3ccc(-n4cnc(N5CCOCC5)n4)cc3)n2)cc(N2CCOCC2)c1 [JNK-9L]; conditions: top dose 5.12 µM; top dose inferred
# Protocol: as §1
# [4] = compound: CC(C)(C)c1cc(NC(=O)Nc2ccc(-c3cn4c(n3)sc3cc(OCCN5CCOCC5)ccc34)cc2)no1 [AC220]; conditions: top dose 1.024 µM; top dose inferred
# Protocol: as §1
# [5] = compound: NCC(=O)Nc1ccc(-n2nc(C(F)(F)F)cc2-c2ccc3c(ccc4ccccc43)c2)cc1 [OSU-03012]; conditions: top dose 16 µM; top dose inferred
# Protocol: as §1
# [6] = compound: OC[C@H](Cc1ccccc1)Nc1nc(Oc2ccc3c(c2)CCC3)nc2c1ncn2Cc1ccc(-c2ccccc2)cc1 [QS11]; conditions: top dose 10.24 µM
# Protocol: as §1
# [7] = compound: C#Cc1cccc(Nc2ncnc3cc(OC)c(OCCCCCCC(=O)NO)cc23)c1 [CUDC-101]; conditions: top dose 5.12 µM; top dose inferred
# Protocol: as §1
Cell Line,AUC [1],IC50 [1],AUC ([2]; screen: GDSC drug entry 1014),IC50 ([2]; screen: GDSC drug entry 1014),AUC ([2]; screen: GDSC drug entry 1526),IC50 ([2]; screen: GDSC drug entry 1526),AUC [3],AUC [4],IC50 [4],AUC [5],IC50 [5],AUC [6],IC50 [6],AUC [7],IC50 [7],IC50 [3]
"C-33-A (cervix, adherent)",0.759,11200 nM,0.89,> 5000 nM,0.826,3030 nM,0.463,0.962,> 1020 nM,0.697,3580 nM,0.966,> 10200 nM,0.379,149 nM,
"CA46 (Burkitt lymphoma, suspension)",0.776,13700 nM,0.985,> 5000 nM,0.965,> 5000 nM,0.514,0.928,> 1020 nM,0.743,5270 nM,0.924,> 10200 nM,0.149,23.5 nM,350 nM
"CAKI-1 (kidney, adherent)",0.824,> 32000 nM,,,0.757,2560 nM,0.517,0.976,> 1020 nM,0.84,> 16000 nM,0.958,> 10200 nM,0.686,1390 nM,365 nM
"CAL-27 (head and neck, adherent)",0.519,2250 nM,0.695,1120 nM,0.517,348 nM,0.522,0.984,> 1020 nM,0.63,2300 nM,0.907,> 10200 nM,0.39,159 nM,368 nM
"CAL-29 (bladder, adherent)",0.924,> 32000 nM,0.766,1980 nM,0.748,1720 nM,0.693,0.973,> 1020 nM,0.758,5920 nM,0.984,> 10200 nM,0.52,364 nM,1170 nM
"CAL-33 (head and neck, adherent)",0.706,7600 nM,0.574,499 nM,,,0.618,0.986,> 1020 nM,0.705,3790 nM,0.882,> 10200 nM,0.554,451 nM,675 nM
"CAL-39 (cervix, adherent)",0.581,3370 nM,0.553,438 nM,0.591,561 nM,0.487,0.986,> 1020 nM,0.53,1210 nM,0.973,> 10200 nM,0.692,1130 nM,294 nM
"CAL-51 (breast, adherent)",0.925,> 32000 nM,0.871,3650 nM,0.97,> 5000 nM,0.424,0.985,> 1020 nM,0.31,319 nM,0.724,2490 nM,0.949,> 5120 nM,205 nM
"CAL-54 (kidney, adherent)",0.984,> 32000 nM,0.823,3530 nM,0.814,3210 nM,0.619,0.972,> 1020 nM,0.867,> 16000 nM,0.966,> 10200 nM,0.607,659 nM,714 nM
"CAL-62 (thyroid, adherent)",0.9,> 32000 nM,0.634,719 nM,0.656,826 nM,0.618,0.982,> 1020 nM,0.528,1190 nM,0.846,6960 nM,0.611,635 nM,664 nM
"CAL-72 (osteosarcoma, adherent)",0.984,> 32000 nM,0.826,3790 nM,0.815,3380 nM,0.974,0.984,> 1020 nM,0.869,> 16000 nM,0.922,> 10200 nM,0.901,> 5120 nM,> 5120 nM
"CAL-78 (chondrosarcoma, adherent)",0.909,> 32000 nM,0.95,> 5000 nM,0.94,> 5000 nM,0.841,0.985,> 1020 nM,0.907,> 16000 nM,0.986,> 10200 nM,0.884,> 5120 nM,4340 nM
"CAL-85-1 (breast, adherent)",0.75,13100 nM,0.778,2640 nM,0.776,2600 nM,0.539,0.973,> 1020 nM,0.491,941 nM,0.772,5090 nM,0.718,1610 nM,422 nM
"CAL-120 (breast, adherent)",0.85,> 32000 nM,0.846,> 5000 nM,0.893,> 5000 nM,0.725,0.974,> 1020 nM,0.822,13100 nM,0.981,> 10200 nM,0.696,1350 nM,1710 nM
"CAMA-1 (breast, adherent)",0.898,> 32000 nM,,,0.978,> 5000 nM,0.921,0.98,> 1020 nM,0.701,4290 nM,0.791,5930 nM,0.586,584 nM,> 5120 nM
"CAS-1 (glioma, adherent)",0.982,> 32000 nM,0.91,> 5000 nM,0.84,> 5000 nM,0.674,0.956,> 1020 nM,0.778,9070 nM,0.965,> 10200 nM,0.754,2320 nM,1180 nM
"CCF-STTG1 (glioma, adherent)",0.987,> 32000 nM,0.908,> 5000 nM,0.864,4400 nM,0.657,0.963,> 1020 nM,0.775,6390 nM,0.943,> 10200 nM,0.987,> 5120 nM,877 nM
"CCK-81 (large intestine, adherent)",0.706,,,,0.987,> 5000 nM,0.617,0.919,> 1020 nM,0.855,11500 nM,0.945,> 10200 nM,0.45,235 nM,658 nM
